This is an account of results in PubChem BioAssay (Tox21).

Inconclusive results are not listed. Calls follow the shape of the dose curve; as a rule, active = well fitted activation curve with a large enough effect in the repeat runs; inconclusive = weak or mixed curves; inactive = flat fitted curve, though single readings scatter. More than one record can exist for a structure, and the calls need not agree. For part of its entries the source gives two or more results. This list holds those alone. The source may hold further records. The values listed for one entry are repeated measurements across runs, samples, wells, individuals or studies. Marks in square brackets tell the records apart. A, B and so on number the origins entry by entry.
Potency is read from the fitted curve at half-maximal effect.

The first assay is described as follows: A CellTox Green Cytotoxicity Assay to monitor cytotoxicity in HEK293 cells - 24 hour (AID 1224875). Also: nearly all actives have a fitted effect of over 45% in size. The note with it: CellTox Green fluorescence; series mostly up to 76.8 µM. The gist of the method: (§1)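 Real-time, in one plate: 600 HEK293 cells/well with dead-cell DNA dye, pinned compound after 5 h, 37 C incubation over 40 h; viable cells give no appreciable fluorescence.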
On to `C=CCO`, for which the Potency entry is “inactive [sample A] and active: 27.5 µM [sample B]”.

Consider `CCCCCCCCCCCC#N`, for which the Potency entry was “inactive [sample A] and active: 28.5 µM [sample B]”.

Take `CCCN(CCC)c1c([N+](=O)[O-])cc(C(F)(F)F)cc1[N+](=O)[O-]`: the Potency result is “active: 1.55 µM [sample A] and inactive [sample B]”.

Take `c1cc2c3c(cccc3c1)CC2`: the Potency result was “inactive [sample A] and active: 49 µM [sample B]”.

Turning to `CCCC1COC(Cn2cncn2)(c2ccc(Cl)cc2Cl)O1` (stereo not given), the Potency entry was “active: 49.9 µM [sample A] and inactive [sample B]”.

As for `C1CN2CCN1CC2`, the Potency result is “inactive [sample A] and active: 21.9 µM [sample B]”.

Another assay in a line: A CellTox Green Cytotoxicity Assay to monitor cytotoxicity in HEK293 cells - 16 hour (AID 1224888). Also: nearly all actives have a fitted effect of over 35% in size. The note with it: CellTox Green fluorescence; series mostly up to 76.8 µM. The gist of the method: as §1
For `C=CCO`, the Potency result was “inactive [sample A] and active: 27.5 µM [sample B]”.

For `CCCCCCCCCCCC#N`, the Potency result was “inactive [sample A] and active: 45.2 µM [sample B]”.

`c1cc2c3c(cccc3c1)CC2`: the Potency entry is “inactive [sample A] and active: 49 µM [sample B]”.

With `C1CN2CCN1CC2`, the Potency entry is “inactive [sample A] and active: 21.9 µM [sample B]”.
